In all, about 110,000 compounds went through this assay and about 230 (0.21%) showed an effect of 50% or more. This is one part of the list.
Biological target: DPAP1 (Plasmodium falciparum, UniProt Q8IIJ9)
Test: primary screen, percent inhibition; read by cleavage of a fluorogenic dipeptide substrate; higher = more effect of the substance
Set-up: species or system P. falciparum D10 trophozoite lysates; single well
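Further: 30 min substrate incubation versus DMSO and 10 µM JCP410 controls.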

Sequence of DPAP1 (Q8IIJ9 whole entry, looked up): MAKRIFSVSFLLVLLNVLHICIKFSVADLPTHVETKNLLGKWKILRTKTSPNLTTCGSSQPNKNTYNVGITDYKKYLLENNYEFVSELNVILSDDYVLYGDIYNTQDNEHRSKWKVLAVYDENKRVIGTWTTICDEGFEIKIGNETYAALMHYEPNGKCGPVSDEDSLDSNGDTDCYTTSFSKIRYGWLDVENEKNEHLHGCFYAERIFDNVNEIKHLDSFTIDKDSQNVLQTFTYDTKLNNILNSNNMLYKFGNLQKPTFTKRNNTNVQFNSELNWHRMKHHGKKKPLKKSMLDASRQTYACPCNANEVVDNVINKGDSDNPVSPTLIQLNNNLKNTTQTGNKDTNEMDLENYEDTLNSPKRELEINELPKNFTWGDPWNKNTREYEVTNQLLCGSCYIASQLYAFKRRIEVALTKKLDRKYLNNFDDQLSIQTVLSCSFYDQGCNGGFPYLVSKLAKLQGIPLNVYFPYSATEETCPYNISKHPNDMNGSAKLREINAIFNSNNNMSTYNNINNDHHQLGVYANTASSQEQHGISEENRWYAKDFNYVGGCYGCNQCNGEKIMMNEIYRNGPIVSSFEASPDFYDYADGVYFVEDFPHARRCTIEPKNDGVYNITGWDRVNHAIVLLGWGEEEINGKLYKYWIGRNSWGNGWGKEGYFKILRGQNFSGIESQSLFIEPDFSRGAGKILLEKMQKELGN

Compound | % Inhibition @ 10 uM
O=C(Nc1ccc2oc(-c3ccccc3F)nc2c1)c1ccccc1F | -0.622%
COc1ccc(-c2nnc(SCC(=O)c3ccc(C)o3)n2-c2ccccc2)cc1 | 2.7%
Cc1ccccc1C(=O)N1CCC(C(=O)O)CC1 | 0.755%
Cc1ccc(CCNS(=O)(=O)c2ccc3[nH]c4c(c3c2)CCCC4)cc1 | -0.878%
COc1cc(OC)cc(C(=O)NC(C)C23CC4CC(CC(C4)C2)C3)c1 (stereo not shown) | -0.424%
O=C(NCC1COc2ccccc2O1)C1(c2ccccc2)CCCC1 (stereo not shown) | -1.16%
CS(=O)(=O)N(CC(=O)N1CCN(Cc2ccccc2)CC1)Cc1ccccc1 | -5.6%
CCc1ccc(C2C(C(=O)c3ccc4c(c3)CC(C)O4)=C(O)C(=O)N2CCOC)cc1 (stereo not shown) | -2.84%
COc1ccc2[nH]c3c(=O)n(CCCCC(=O)N(C)Cc4ccccc4)c(=S)[nH]c3c2c1 | 4.28%
CC1(C)CC(=O)C(/C=N/c2cccc(/N=C/C3=C(O)CC(C)(C)CC3=O)n2)=C(O)C1 | 2.03%
Cc1c(CNC(C)c2ccccc2)c(C(=O)O)c(C)n1Cc1ccccc1F (stereo not shown) | -7.36%
Cn1c2c(c(=O)n(C)c1=O)C(c1cccc(Cl)c1Cl)CC(=O)N2 (stereo not shown) | -0.396%
COc1nc(C)nc(NC(=O)NS(=O)(=O)c2ccccc2C)n1 | 0.716%
CCOc1ccccc1-c1cc(C(=O)NCc2ccncc2)c2ccccc2n1 | 0.467%
Cc1ccc(C(=O)NCc2nc(-c3ccc(Cl)cc3)no2)c(C)c1 | 2.14%
CCN1/C(=C\C(=O)c2ccc(C)cc2)Sc2ccccc21 | 6.08%
Cc1ccc(-c2nc(CSCC(=O)NC3CCCCC3C)c(C)o2)cc1 (stereo not shown) | -1.05%
Cc1ccc(Nc2nc(N)nc(CSc3nccn3C)n2)cc1 | -0.105%
CCCCN1C(C)=CC(=C2C(=O)c3ccccc3C2=O)C=C1C | 2.03%
CCC(C)NC(=O)CNC(=S)N(Cc1ccccc1)Cc1cccnc1 (stereo not shown) | 1.27%
Cc1ccc(OCC(=O)Nc2nc(-c3ccc(S(=O)(=O)N4CCOCC4)cc3)cs2)cc1C | 5.92%
O=C(CSC1=NC(=O)C(c2ccccc2)C(=O)N1)NC1CCCCC1 (stereo not shown) | -2.26%
COc1ccccc1C(=O)N1CCN(Cc2ccccc2)CC1 | -3.49%
Cc1ccc2cc3cc(C(=O)NCCN(C)Cc4ccccc4)sc3nc2c1 | -2.12%
CN1C(=O)c2ccc(N3C(=O)c4ccc(Br)cc4C3=O)cc2C1=O | 23.3%

Compound | % Inhibition @ 10 uM
CN1C/C(=C\c2ccc(F)cc2)C(=O)/C(=C/c2ccc(F)cc2)C1 | 2.59%
COc1ccc(/C=c2\s/c(=C/C(=O)c3ccc(C)cc3)[nH]c2=O)cc1OC | -5.24%
Cc1ccccc1N(CC(=O)N(C)Cc1ccccc1)S(=O)(=O)c1ccccc1 | -8.78%
CCC(C)(C)C(=O)Nc1ccc(S(=O)(=O)N2CCC(C)CC2)cc1 | -10.2%
O=C(CN1CCCC1)N1c2ccccc2Sc2ccc(C(F)(F)F)cc21 | -0.294%
O=C(NCc1ccccc1)C1CCCN(S(=O)(=O)c2cccs2)C1 (stereo not shown) | 6.82%
CCOc1ccc(Nc2[nH]nc(C)c2[N+](=O)[O-])cc1 | -7.46%
CC(c1ccccc1)n1cnc2ccccc21 (stereo not shown) | 9.03%
Cc1ccc(OCCCC(=O)Nc2sc3c(c2C#N)CCC(C)C3)cc1 (stereo not shown) | -1.25%
CCCCNC(=O)c1cc(-c2ccc(O)c(OC)c2)nc2[nH]nc(-c3ccccc3)c12 | 10.1%
CCOc1ccccc1/C=c1\sc2nc(-c3cccc(Cl)c3)nn2c1=O | 2.24%
Cc1nnnn1-c1nc(-c2ccc(Cl)cc2)cc(C(F)(F)F)n1 | -8.56%
Cc1ccc(-c2noc(CCC(=O)NCCN3CCN(Cc4ccccc4)CC3)n2)cc1 | 4.05%
CCCCN(C)C1CCN(C(=O)OCC)CC1 | 1.88%
CCOC(=O)N1CCN(c2nn3nnnc3c3ccccc23)CC1 | 2.81%
CCCOCCOC(=O)C1=C(C)NC(=O)CC1c1ccccc1OC (stereo not shown) | 5.86%
CCc1ccccc1NC(=O)CN(c1ccc(C(C)C)cc1)S(C)(=O)=O | -7.69%
CCC(C)C1C(C#N)=C(N)OC2=C1C(=O)CCC2 (stereo not shown) | -5.34%
C=CCOC(=O)c1sc(N2C(=O)c3oc4ccc(F)cc4c(=O)c3C2c2ccc(O)cc2)nc1C (stereo not shown) | -3.13%
O=C(CSc1nsc(SCC(=O)N2CCOCC2)n1)N1CCOCC1 | 0.361%
Cc1onc(-c2ccccc2)c1C(=O)n1cccn1 | -4.03%
COC(=O)C1=C(C)N(C)C(=S)NC1c1ccc(OC)c(OC)c1 (stereo not shown) | -0.339%
CCC1CCCCN1Cc1nc2c(c(=O)n(C)c(=O)n2C)n1Cc1ccccc1 (stereo not shown) | -2.29%
Cc1nnc2c(NCCC(C)C)nc3ccccc3n12 | -2.88%
Cc1ccc(N(CC(=O)N2CCCCC2)S(=O)(=O)c2ccc(C)cc2)cc1 | -1.95%

Compound | % Inhibition @ 10 uM
Cc1cc(C)nc(NS(=O)(=O)c2ccc(NC(=O)c3cc(Cl)ccc3Cl)cc2)n1 | -0.425%
CCSc1nc2sc3c(c2c(=O)n1CC)CCC3 | -1.99%
COc1cc(OC)c(CN2CCCN(C)CC2)cc1Br | -0.192%
Cc1ccccc1-c1nc(CN2CCC(C(=O)NC3CCN(Cc4ccccc4)CC3)CC2)c(C)o1 | -6.4%
Cc1ccc2c(c1)-c1c(cnn1CC(=O)N(C)C1CCCCC1)CO2 | 1.93%
O=C(Nc1n[nH]c(-c2n[nH]c(NC(=O)C(F)(F)F)n2)n1)C(F)(F)F | -2.72%
CC(=O)Nc1ccc(N/C=C2/C(=O)NC(=O)N(c3ccccc3)C2=O)cc1 | 0.76%
CCOC(=O)C1=C(C)N=c2s/c(=C\c3ccc(OC)c(OC)c3)c(=O)n2C1c1ccc(N(C)C)cc1 (stereo not shown) | -5.92%
CN1CCN(C(=O)CCCN2C(=O)c3ccccc3Sc3ncccc32)CC1 | 2.6%
O=C1Nc2c(Br)cc(Br)c3cccc1c23 | 0.98%
CCOC(=O)/C(C#N)=C/c1c(Oc2ccc(CC)cc2)nc2c(C)cccn2c1=O | -1.43%
Cc1cc(C(F)F)nn1CC(=O)Nc1cccc(Br)c1 | 0.5%
COc1ccc(CCNC(=O)c2cc(Cl)ccc2OC)cc1OC | 8.71%
COc1ccccc1N1CCN(CCCN2C(=O)C3CCCN3C2=O)CC1 (stereo not shown) | -0.0619%
COc1ccc(CCC(=O)Nc2ccn(Cc3cccc4ccccc34)n2)cc1 | -6.65%
Nc1cc(NC(=O)c2cccc(Cl)c2)cc(Oc2cccnc2)c1 | -1.04%
CS(=O)(=O)N(CC(=O)NCc1ccco1)c1ccccc1Br | 2.43%
N#Cc1c(NC(=O)c2cccc(S(=O)(=O)N3CCCC3)c2)sc2c1CCCC2 | 2.01%
CCC1CCCCN1C(=O)Cn1c(C(=O)OC)cc2sc(C)cc21 (stereo not shown) | -9.3%
CCC(C)Oc1ccc(/C=C2\NC(=O)N(Cc3ccc(Cl)cc3)C2=O)cc1 (stereo not shown) | -4.93%
Cc1[nH]c2ccccc2c1C(Nc1ccc(F)cc1)c1ccncc1 (stereo not shown) | -5.57%
Cc1ccc(CN(CC(=O)NC(C)(C)C)S(=O)(=O)c2ccc(Br)cc2)cc1 | 1.08%
O=C1CC(c2ccc([N+](=O)[O-])cc2)=NN1c1cc(S(=O)(=O)O)ccc1Cl | -1.74%
COc1ccc(CC(=O)Nc2ccccc2NC(=O)Cc2ccc(OC)cc2)cc1 | -1.39%
CN1C(C(=O)c2ccccc2)=C(O)c2ccccc2S1(=O)=O | 3.5%

Compound | % Inhibition @ 10 uM
CCCCN(C)S(=O)(=O)c1csc(C(N)=O)c1 | -0.256%
Cc1ccc(O)c(NC(=O)c2ccc3c(c2)C(=O)N(CCC(C)C)C3=O)c1 | 13.2%
NS(=O)(=O)c1ccc(NC(=O)c2ccc3c(c2)OCO3)cc1 | 1.88%
COc1cc(NC(=O)COc2ccccc2)ccc1NC(=O)c1ccco1 | -1.65%
FC(F)(F)c1ccccc1C1CC(c2ccc(Br)cc2)=NN1c1ccccc1 (stereo not shown) | 0.219%
CCOc1ccccc1/C=C1/N=C(c2cc(Cl)ccc2OC)OC1=O | 1.25%
Cc1cccc(CN2CCC(O)CC2)c1 | 3.1%
O=C(/C=C/c1ccc(Cl)cc1Cl)Nc1ccc2c(c1)OCO2 | 5.31%
COc1ccccc1[C@@H](C)C[C@H](NC(=O)OCc1ccccc1)C(=O)NCC#N | -5.2%
COc1cc(CN2COc3c(Cl)cc4c5c(c(=O)oc4c3C2)CCC5)cc(OC)c1OC | -0.808%
O=C(N1CCC(Cc2ccccc2)CC1)C1(S(=O)(=O)c2ccc(Cl)cc2)CC1 | 3.5%
CCN(CC)c1ncnc2sc(C(=O)N(C)Cc3ccccc3)c(C)c12 | 1.2%
COC(=O)c1ccc(C2CC(=O)N3C(=C2C#N)SCC3(O)c2ccc(C)cc2)cc1 (stereo not shown) | 1.64%
Cc1ccc(OCC(=O)c2cc(C)c(O)cc2O)cc1 | 10.2%
C/C=C/C=C/C(=O)Nc1cnc(O)nc1O | 4.81%
CC(C)CC(=O)N1CCN(CC/N=C/C2=C(O)CC(c3ccc(Cl)cc3)CC2=O)CC1 (stereo not shown) | -1.6%
Cc1ccc(-n2nc3c(=O)n(CCCC(=O)NCc4cccnc4)nc(C)c3c2C)cc1 | -0.665%
O=C(CC1Sc2ccccc2NC1=O)Nc1ccc(O)c(Cl)c1 (stereo not shown) | 0.795%
O=C(O)c1ccc(Nc2nc(C(F)(F)F)c(-c3ccccc3)s2)cc1 | 6.31%
COc1cc(NC(=O)c2cnn3c(C(F)F)cc(-c4ccccc4)nc23)cc(OC)c1OC | 8.08%
NC(=O)Nc1ccccc1C(=O)NCCc1ccccc1 | 4.97%
CCCc1nn(-c2ccc(F)cc2)c(O)c1/C=N/Cc1ccc2c(c1)OCO2 | -4.6%

Source: article PMC6919601, “Identification of Plasmodium dipeptidyl aminopeptidase allosteric inhibitors by high throughput screening” (PLoS ONE, 2019)
